Reference: article PMC12339391
Results are given in words; binding and its absence hold for the method and conditions named. For some assays here: Binding seen in cells or lysates may run through a third protein. Some entries that bind do so weakly or less than the wild type. For some assays here: Tags and fused reporters may be left off the sequences shown.

T1: [^35S]H6PEX7 (radiolabelled, N-terminally His-tagged human PEX7) (human) (UniProt O00628)
T1 sequence (chain, [35S]methionine): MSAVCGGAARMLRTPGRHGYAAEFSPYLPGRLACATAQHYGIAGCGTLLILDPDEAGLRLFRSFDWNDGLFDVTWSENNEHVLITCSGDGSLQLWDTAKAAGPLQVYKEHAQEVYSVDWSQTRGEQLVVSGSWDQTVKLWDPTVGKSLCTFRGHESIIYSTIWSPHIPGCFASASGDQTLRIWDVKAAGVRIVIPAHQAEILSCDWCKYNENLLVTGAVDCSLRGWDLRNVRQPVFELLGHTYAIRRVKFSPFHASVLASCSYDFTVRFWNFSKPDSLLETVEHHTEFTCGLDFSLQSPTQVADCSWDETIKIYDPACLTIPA


Tests used:
[1] = biological target: HsPEX39-FLAG-HA (C-terminally FLAG-HA-tagged human PEX39) (human) (UniProt Q5I0X4); experiment: co-IP; anti-FLAG M2 magnetic beads; lysates of HCT116 or HEK293T cells stably expressing the FLAG-HA-tagged bait; 50 mM Tris-HCl pH 7.5, 150 mM NaCl, 0.5% NP-40 alternative, 1 mM DTT, 4 h at 4 °C; washes with 400 mM NaCl; immunoblot of endogenous prey
[2] = biological target: T1, [^35S]H6PEX7 (radiolabelled, N-terminally His-tagged human PEX7) (human); experiment: native gel or EMSA; [35S]His-PEX7 (0.4 μl reticulocyte lysate) pre-incubated with ONE recombinant protein (HsPEX39 variant 4 μg, His-PEX5(1–324) 1 μg, His-PHYH 100 ng or NtPEX13 variant 4 μg) in 20 μl 20 mM Tris-HCl pH 8.0, 5 mM DTT, 0.025% BSA; non-denaturing 8% gel, 4 °C; autoradiography; only the binder purified

binding [1] | binding [2] | Binder
binds | – | endogenous PEX7 (protein, UniProt O00628 1-323) MSAVCGGAARMLRTPGRHGYAAEFSPYLPGRLACATAQHYGIAGCGTLLILDPDEAGLRLFRSFDWNDGLFDVTWSENNEHVLITCSGDGSLQLWDTAKAAGPLQVYKEHAQEVYSVDWSQTRGEQLVVSGSWDQTVKLWDPTVGKSLCTFRGHESIIYSTIWSPHIPGCFASASGDQTLRIWDVKAAGVRIVIPAHQAEILSCDWCKYNENLLVTGAVDCSLRGWDLRNVRQPVFELLGHTYAIRRVKFSPFHASVLASCSYDFTVRFWNFSKPDSLLETVEHHTEFTCGLDFSLQSPTQVADCSWDETIKIYDPACLTIPA
– | binds | HsPEX39(ΔC) (C-terminally truncated HsPEX39, residues 1–70) (domain or fragment, UniProt Q5I0X4 1-70) MERPRSPQCSAPASASASVTLAQLLQLVQQGQELPGLEKRHIAAIHGEPTASRLPRRPKPWEAAALAESL
